This note sets out measurements from article PMC12136788.

Some of the results follow.

Sequences and labels used below:
T1: UNK ZnF1-3 (human, UniProt Q9C0B0 31-174)
T1 sequence: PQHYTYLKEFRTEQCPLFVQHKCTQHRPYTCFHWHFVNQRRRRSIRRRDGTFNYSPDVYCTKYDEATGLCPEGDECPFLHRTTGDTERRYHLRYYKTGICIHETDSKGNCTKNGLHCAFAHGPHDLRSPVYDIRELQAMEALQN

B1: chr5:22970553:22970554:+_ENSMUSG00000029004_ENSMUST00000094962|mus_hu|FALSE|FALSE (ssRNA)
RNA: GGGAGUUCUACAGUCCGACGAUCAGCACUGGAAGUUUCAUCAAAAUUAGGAGUGGUAAAUAUGCCUACUUCAUUUUUGCUAAUAAGGACUGAUGGAGGAGGGGAAGCCGGAGGUGUCGGAGGAGGACGAGCACCAUAAUUAUGCAACAGAGGAUUGAGCAUCA
B2: chr7:140404665:140404666:+_ENSG00000090266_ENST00000247866|hu_hu|hu_hu_hu_mus_False|28_38 (ssRNA)
RNA: GGGAGUUCUACAGUCCGACGAUCUGCUCCUACUCGUCCAGAGAGUUUACAGUGUCAGUCCUCGUCAUCAGGAGGGAUUCCCAGUUCUUCAUCUGUCCACUGGGAAGGAUCAGGAUAUGAAAAGUGACCCAGCACAGCAUCCGACAACAGAGGAUUGAGCAUCA
B3: chr14:22612544:22612545:+_ENSMUSG00000021770_ENSMUST00000119430|mus_mus|motif|central (ssRNA)
RNA: GGGAGUUCUACAGUCCGACGAUCAGCCAAAUGCAACGUAUCCAGGAGCCUGGGACAAAGUAUUCAUUUUCAUUCCAUAACGGCUGUAUAUUUAACAACAAACUCAUUACAGAGAGAGAGUCUUCAUCCAAUUAGUCUUUUCAUCAACAGAGGAUUGAGCAUCA
B4: chr4:115894766:115894767:+_ENSMUSG00000028698_ENSMUST00000030464|mus_hu|mus_mus_mus_hu_True|1_108 (ssRNA)
RNA: GGGAGUUCUACAGUCCGACGAUCUUCACACGGAAAUUGUACUUCGGGUUUUCCAACGGCCAGUACCAGUCCGGCCAAACUACCCGAACAGGGUCCUCCCCCUCUCUCCUACAGAACACAACAAAAUGCCCCCGAACCCCGAACCAACAGAGGAUUGAGCAUCA
B5: chr4:17845017:17845018:+_ENSG00000109805_ENST00000514176|hu_mus|hu_hu_hu_mus_False|78_98 (ssRNA)
RNA: GGGAGUUCUACAGUCCGACGAUCGCUCUCUUAACUUGAUCUUCAUUUAAGGAACUCGCAAGGUUAAAGUUUACUUUUCUGUAGCGCAGCUGUUUUGGCUCGUCUGGGUAAUCUCAUCUUCAUUUCUGAUGGUGGUUCAUGAUCCAACAGAGGAUUGAGCAUCA
B6: chr19:8913615:8913616:-_ENSMUSG00000071658_ENSMUST00000096259|mus_hu|mus_mus_mus_hu_False|1_18 (ssRNA)
RNA: GGGAGUUCUACAGUCCGACGAUCAGGGUACCAAAACCUUCUGCCUGAAAUGGGUGCCCCACCCAGUAGGGAGUUGCAGCUGAAAGUAUCUGAUGCAGAAGCAGUGACUAUACGAAAGGUCACUAGAGGGGAGGGCCCGAGAUCCAACAGAGGAUUGAGCAUCA
B7: chrX:71025408:71025409:-_ENSMUSG00000002010_ENSMUST00000052761|mus_mus|motif|central (ssRNA)
RNA: GGGAGUUCUACAGUCCGACGAUCGAAUACUGCAUACACAUGGCCAUAGUUGGCCCCAGCCACAAGGCCUGGGCCUCCAACGGGCCCUGCACAGACGUUGUUGACAAUGUUACCAUAGAGAUUAGGCAUCACCAUGACAUCAAACAACAGAGGAUUGAGCAUCA
B8: 6509843_6513729_1012_CDS_ENSMUSG00000033768_ENSMUST00000113458|mouse|control|control (ssRNA)
RNA: GGGAGUUCUACAGUCCGACGAUCGUUAUCAAAGUUUCCUGCCGGGUACCUCUCGUUGACUGGCCAGCUGUCCACUUGCAAGGUGGCAUUGCCACCACUUCGAGUAAAGCGCACCACGUGAUAUUUGCCGUCGCUCACGAUGGCCAACAGAGGAUUGAGCAUCA
B9: chr5:68553883:68553884:+_ENSG00000134058_ENST00000256443|hu_hu|motif|central (ssRNA)
RNA: GGGAGUUCUACAGUCCGACGAUCUCCUUGAAGAGUCAUCAACAUGUAGGCUUUGAUGUGUGAUGGUGUCAGCACAAGACGGUUAUCCUUUAUUAUAACCUCUAGAUCAGUUUCCAUAAAAUCAAAGACAAGGCUAAUAUUAGACAACAGAGGAUUGAGCAUCA
B10: chr11:51804959:51804960:-_ENSMUSG00000020390_ENSMUST00000020657|perfect_dup|FALSE|FALSE (ssRNA)
RNA: GGGAGUUCUACAGUCCGACGAUCAUUUUGGAUAAAAACCUAACAGUUGGUGGUUUAUUUGGAUAUUCUUCAGAAAAUUCUAUUACUAGUUUAAAAGUACCAUCUUCAAAAGGUGUCCCUUCUGGUCCAAAUAUAACUGCAUUCCAACAGAGGAUUGAGCAUCA
B11: chr22:29966471:29966472:-_ENSG00000184117_ENST00000216121|hu_hu|FALSE|FALSE (ssRNA)
RNA: GGGAGUUCUACAGUCCGACGAUCGGUUUCCUUCUUGGACAGCAGGGUGGAGUGGGCAUCCUUCCGGGGAUCCACUUUGUGAACAAAGAGGGAGCGGAACCAGCUGCCUUCAUUGUCCUUGGAAUAGAAACGCGCCGCAGCUGCCAACAGAGGAUUGAGCAUCA
B12: 106916261_106916381_7059_CDS_ENSMUSG00000040481_ENSMUST00000057892|mouse|control|control (ssRNA)
RNA: GGGAGUUCUACAGUCCGACGAUCGGGUUGCUGUCCAGGAGUCACUUGGGAUGGAGUUGAUGGACGUAUUCGAGUCAGUGGUGGACUCUGGACUCGAACAGGAGACUGUCCUUGUACACUGCUCUGAGGCUGACACUGUGUUGCCAACAGAGGAUUGAGCAUCA
B13: chr5:71493517:71493518:+_ENSG00000131711_ENST00000296755|hu_hu|motif|central (ssRNA)
RNA: GGGAGUUCUACAGUCCGACGAUCUUCUUUUAUUGGUGCAAAGUCUGUGCUUUUCCCUUCCUGUUUGUCUUGGUAAAGACGGGUAGAAGUCAUUUCAGAAACUGGACUUACUUGGUCUGGAGAGCCUUGUUUUCCACUCUUUUCCAACAGAGGAUUGAGCAUCA
B14: chr3:115528449:115528450:-_ENSG00000185565_ENST00000490035|hu_hu|FALSE|FALSE (ssRNA)
RNA: GGGAGUUCUACAGUCCGACGAUCCACACACGCACAGUGGAGAAAAUGAAAAUGGCACUUCCUAGCAUUUGCGGCAUGACUAGUGCUCUGGGGAGGGGGUGGAGGUGAGGAGAGGUGAGGGAGGAAAGGUGGGUGAAAAGGGAGCAACAGAGGAUUGAGCAUCA

The assay concerns the target T1, UNK ZnF1-3. The experiment in a line: nsRBNS (natural sequence RNA bind-n-seq); RBNS binding buffer (assumed for nsRBNS): 25 mM Tris pH 7.5, 150 mM KCl, 3 mM MgCl2, 0.01% Triton X-100, 500 ug/ml BSA, 20 U/ml SUPERase-In, 4 C; UNK is unkempt and MSI1 is Musashi-1; names of the RNAs are library labels; protein concentration not given here; high values mean tight binding.
In turn, B1 returned a binding signal of 2.26 enrichment R. In turn, B2 gave a binding signal of 1.7 enrichment R.

The molecule B3 displayed a binding signal of 1.02 enrichment R.

On to B4, for which the binding signal worked out at 1.03 enrichment R. Regarding B5, the binding signal stood at 0.422 enrichment R. With B6, the binding signal came to 1.32 enrichment R. As for B7, the binding signal is 1.17 enrichment R. As for B8, the binding signal came to 0.894 enrichment R. For B9, the binding signal was determined as 1.11 enrichment R.

In the case of B10, the binding signal was determined as 0.664 enrichment R.

In turn, B11 displayed a binding signal of 1.12 enrichment R.

On to B12, for which the binding signal turned out to be 0.81 enrichment R. On to B13, for which the binding signal was 0.476 enrichment R. For the molecule B14, the binding signal amounted to 1.83 enrichment R.
